Experimental findings from publication PMC4336329 (PLoS ONE, 2015) are described below.

Each structure is given as a SMILES string. Among all 310,000 compounds or so, about 14,000 (4.5%) showed an effect of 50% or more. Effects have a minus sign here. This is one part of the list.
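Further: peak tail current of the secondary pulse compared with the same well before compound.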

For the assay, the target named is human ether-à-go-go-related gene (hERG) potassium channel (human, UniProt Q12809). The assay is described as follows: primary screen, population patch clamp on CHO cells stably expressing hERG.
Chain of human ether-à-go-go-related gene (hERG) potassium channel (Q12809 whole entry, looked up): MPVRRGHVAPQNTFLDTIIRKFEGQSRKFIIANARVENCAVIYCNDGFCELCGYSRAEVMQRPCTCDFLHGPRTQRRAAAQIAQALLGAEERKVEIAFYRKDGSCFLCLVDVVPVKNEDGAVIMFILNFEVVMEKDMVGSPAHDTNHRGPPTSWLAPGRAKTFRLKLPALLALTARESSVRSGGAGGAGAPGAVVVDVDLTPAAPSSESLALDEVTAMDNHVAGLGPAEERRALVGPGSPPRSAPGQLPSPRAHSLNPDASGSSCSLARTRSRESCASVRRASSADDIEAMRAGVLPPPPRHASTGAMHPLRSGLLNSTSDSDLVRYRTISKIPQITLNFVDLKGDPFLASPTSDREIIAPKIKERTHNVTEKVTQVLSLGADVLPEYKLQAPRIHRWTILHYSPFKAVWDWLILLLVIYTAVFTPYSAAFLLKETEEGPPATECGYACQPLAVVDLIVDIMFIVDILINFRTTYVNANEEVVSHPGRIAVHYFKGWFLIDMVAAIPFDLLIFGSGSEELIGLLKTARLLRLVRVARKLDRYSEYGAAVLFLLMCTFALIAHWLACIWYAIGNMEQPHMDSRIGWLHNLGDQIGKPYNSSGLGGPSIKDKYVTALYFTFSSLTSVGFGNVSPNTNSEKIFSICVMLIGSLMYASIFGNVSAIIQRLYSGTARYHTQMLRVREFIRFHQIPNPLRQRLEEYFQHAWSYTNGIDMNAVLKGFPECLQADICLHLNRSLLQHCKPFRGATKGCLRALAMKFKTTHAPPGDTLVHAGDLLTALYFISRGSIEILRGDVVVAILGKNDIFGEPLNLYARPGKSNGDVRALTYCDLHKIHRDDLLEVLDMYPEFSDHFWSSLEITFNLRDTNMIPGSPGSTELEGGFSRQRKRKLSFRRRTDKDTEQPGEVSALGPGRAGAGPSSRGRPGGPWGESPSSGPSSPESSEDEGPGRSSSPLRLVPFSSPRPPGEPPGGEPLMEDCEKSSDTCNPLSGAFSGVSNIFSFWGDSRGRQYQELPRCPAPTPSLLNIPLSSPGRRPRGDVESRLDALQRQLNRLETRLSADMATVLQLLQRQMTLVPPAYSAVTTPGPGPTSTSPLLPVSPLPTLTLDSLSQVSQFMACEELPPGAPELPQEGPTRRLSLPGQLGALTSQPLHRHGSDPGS
Regarding `O=c1[nH]c2ccc(F)cc2[nH]c1=O`, the “hERG current change (%, negative = inhibition) at 10uM” value was 26.1%.
Regarding `O=C(NCc1cccnc1)C(=O)C1C(=O)Nc2ccccc21` (centres unmarked), the “hERG current change (%, negative = inhibition) at 10uM” value turned out to be 13.1%.
The same measure for `CCCOc1ccc(CNC(=O)c2ccc3c(c2)N(CC)CCS3)cc1`: -10.5%.
As to `O=C(N/N=C\c1ccccc1F)c1ccc(-c2ccccc2)cc1`, the “hERG current change (%, negative = inhibition) at 10uM” value is recorded as 12%.
In the case of `Cc1cc(S(=O)(=O)NCCCN2CCOCC2)c(Cl)cc1Cl`, the “hERG current change (%, negative = inhibition) at 10uM” value is given as -13.1%.
For `N#CC1=C(N)Oc2n[nH]c(-c3ccccc3)c2C1c1ccsc1` (centres unmarked), the “hERG current change (%, negative = inhibition) at 10uM” value came to 7.03%.
The same measure for `COc1ccc(-c2c(C#Cc3ccsc3)c3cc(-c4cccc5[nH]ccc45)ccc3n2C)cc1`: 8.23%.
Turning to `CCCCOP(=O)(c1ccc(N(C)C)cc1)C(O)c1cc(OC)ccc1OC` (centres unmarked), the “hERG current change (%, negative = inhibition) at 10uM” value stood at 12.5%.
For `CCCCc1cc(=O)oc2c(CN(C)C)c(O)c(Cl)cc12`, the “hERG current change (%, negative = inhibition) at 10uM” value was -1.34%.
For `CCC(=O)NC1(Cc2ccc(O)cc2)CCCCC1`, the “hERG current change (%, negative = inhibition) at 10uM” value is recorded as -2.21%.
For `O=C(c1ccccc1)N(c1ccccc1)C1C=CS(=O)(=O)C1` (centres unmarked), the “hERG current change (%, negative = inhibition) at 10uM” value is given as 6.75%.
With `CCCOc1nc2c(c(=O)n(C)c(=O)n2C)n1C`, the “hERG current change (%, negative = inhibition) at 10uM” value was determined as 1.36%.
As for `CCOc1ccc(OCCCC(=O)Nc2cc(Cl)ccc2-n2cncn2)cc1`, the figure is -43.1%; as for `CC(=O)Nc1ccc(NC(=O)C(=O)c2cn(CC(=O)N3CCCCC3)c3ccccc23)cc1`, 25.8%.
Take `CCOCCCNC(=O)CCCOc1ccccc1`: the “hERG current change (%, negative = inhibition) at 10uM” value is given as -12.9%.
As for `COCCNC(=O)c1ccc2c(=O)n(Cc3ccco3)c(SCC(=O)NC3CCCCC3)nc2c1`, the “hERG current change (%, negative = inhibition) at 10uM” value was -47.1%.
On to `CCOC(=O)c1cccc(NC(=O)c2cc3sccc3n2C)c1`, for which the “hERG current change (%, negative = inhibition) at 10uM” value is recorded as -15.3%.
With `CCc1ccc(N=CC2=C(O)CC(c3ccco3)CC2=O)cc1` (centres unmarked), the “hERG current change (%, negative = inhibition) at 10uM” value was -4.48%.
As for `Cc1cc(C)n2nc(C(=O)Nc3ccc4c(c3)CCC4)nc2n1`, the figure is -15.7%; as for `O=c1c(-c2n[nH]c(=S)n2-c2ccccc2)cccn1Cc1cccc(Cl)c1`, 24.7%; as for `CCCCc1nnc(NC(=O)CCSc2ccccc2)s1`, -16.3%.
In the case of `CC(=O)Nc1cccc(NC(=O)CSc2nc3ccccc3o2)c1`, the “hERG current change (%, negative = inhibition) at 10uM” value turned out to be 7.51%.
As for `CCCc1ccc(OC(=O)c2cccs2)cc1`, the figure is -1.18%; as for `Cc1ccc(-n2c(SCC(=O)N/N=C/c3ccccc3C(=O)O)nnc2-c2ccc(Cl)cc2)cc1`, 13.2%.
Consider `COc1ccc(CNC(=O)CN(Cc2ccccc2Cl)C(=O)c2csnn2)cc1`, for which the “hERG current change (%, negative = inhibition) at 10uM” value is listed as -34.8%.
For the compound `COc1cc2c(-c3ccccc3)c(C)oc2cc1/C=N/NC(N)=S`, the “hERG current change (%, negative = inhibition) at 10uM” value was 20.6%.
With `CCc1nnc(NS(=O)(=O)c2ccc(N=Cc3c(O)n(-c4ccc(Cl)cc4)c(=O)[nH]c3=O)cc2)s1`, the “hERG current change (%, negative = inhibition) at 10uM” value was found to be 11.8%.
In the case of `COc1cc(NC(=O)C2CCC(CNc3c(N4CCC(C)CC4)c(=O)c3=O)CC2)cc(OC)c1` (centres unmarked), the “hERG current change (%, negative = inhibition) at 10uM” value is on record as 16.7%.
As for `O=C(CN1CCN(S(=O)(=O)N2CCCCCC2)CC1)Nc1ccc(Br)cc1`, the figure is -74.3%.
With `COc1ccc(CNC(=O)C2CCCN(S(=O)(=O)c3cnc[nH]3)C2)cc1` (centres unmarked), the “hERG current change (%, negative = inhibition) at 10uM” value is -2.81%.
The same measure for `CCCc1cnc(N2CCN(S(C)(=O)=O)CC2)nc1`: -3.74%; for `Nc1c(C(=O)Nc2ccccc2)c2nc3ccccc3nc2n1CCCN1CCOCC1`: 18.7%; for `CCCCCC1CC(CC(=O)NC(=S)Nc2ccc([N+](=O)[O-])cc2)C(=O)O1` (centres unmarked): -0.0907%.
As for `O=C(c1ccc2c(c1)OCO2)N1CCCN(C(=O)c2ccc3c(c2)OCO3)CC1`, the figure is 6.78%.
`COC(=O)CC1(c2cccc3ccccc23)C(=O)c2ccccc2C1=O`: the “hERG current change (%, negative = inhibition) at 10uM” value is reported as 12.9%.
For `C=CCOC(=O)C1=C(C)NC(=O)NC1c1cc2c(cc1Br)OCO2` (centres unmarked), the “hERG current change (%, negative = inhibition) at 10uM” value is listed as -9.93%.
With `COc1ccc(-n2c(COc3ccc(C)cc3)n[nH]c2=S)cc1`, the “hERG current change (%, negative = inhibition) at 10uM” value is reported as 20.8%.
The same measure for `CC1(C)CC(=O)C(C=Nc2cccnc2)=C(O)C1`: 14.5%; for `COc1ccc(-n2nc(C(=O)O)c3ccccc3c2=O)c(OC)c1`: -1.56%; for `O=C(Nc1ccc2c(c1)OCCO2)C1CCCN1C(=O)Nc1ccccc1` (centres unmarked): 14.2%.
In the case of `Cc1ccccc1-c1nc(CS(=O)(=O)CC(=O)NCCCN2CCCC2)c(C)o1`, the “hERG current change (%, negative = inhibition) at 10uM” value is -3.85%.
For the compound `COc1ccc2c(C)cc(SCC(=O)Nc3c(C)n(C)n(-c4ccccc4)c3=O)nc2c1`, the “hERG current change (%, negative = inhibition) at 10uM” value is -20.9%.
Turning to `COC1=C/C(=C/c2c(N)n3nc(CC(=O)N4CCOCC4)sc3nc2=O)C=CC1=O`, the “hERG current change (%, negative = inhibition) at 10uM” value stood at 4.52%.
`O=C(c1cccnc1)N1CCCc2ccccc21`: the “hERG current change (%, negative = inhibition) at 10uM” value turned out to be 3.12%.
As for `Cc1ccn(S(=O)(=O)c2ccc(C(C)(C)C)cc2)n1`, the figure is -14.6%; as for `CCOC(=O)CSc1nc(-c2ccc(OC)cc2)ns1`, 5.11%.
For the compound `CCCCCCCCc1nc(SCC(C)=O)n[nH]1`, the “hERG current change (%, negative = inhibition) at 10uM” value is reported as 3.83%.
For the compound `Cc1ccc(S(=O)(=O)N2CCC(C(=O)Nc3ccccc3N3CCCCC3)CC2)cc1`, the “hERG current change (%, negative = inhibition) at 10uM” value came out at 7.81%.
For the compound `O=C(CNC(=O)c1ccccc1F)Nc1ccc2c(c1)CCC2`, the “hERG current change (%, negative = inhibition) at 10uM” value is 13.7%.
In the case of `CCCCn1c(N)c(N(CCOC)C(=O)c2ccc(N(C)S(=O)(=O)c3ccc(C)cc3)cc2)c(=O)[nH]c1=O`, the “hERG current change (%, negative = inhibition) at 10uM” value was determined as 3.32%.
For `O=C(NCc1ccco1)c1cnn2cccnc12`, the “hERG current change (%, negative = inhibition) at 10uM” value is 6.05%.
`CSCCC(NC(=O)c1ccc(C(C)(C)C)cc1)C(=O)OCC(=O)N1CCCC1=O` (centres unmarked): the “hERG current change (%, negative = inhibition) at 10uM” value is on record as -18.7%.
For `CC(C)[C@H]1COCCS(=O)(=O)N1Cc1ccccc1`, the “hERG current change (%, negative = inhibition) at 10uM” value was 21%.
Turning to `CC(C)C[C@H](N)c1nnc(SCc2ccc(Cl)cc2)o1.Cl`, the “hERG current change (%, negative = inhibition) at 10uM” value is -1.59%.
The same measure for `O=C(OCc1ccccc1)C1=NNC2C(=O)N(c3ccc(Br)cc3)C(=O)C12` (centres unmarked): -0.364%; for `CO/N=C\C(=N\Nc1ccc(OC)cc1)C(=O)c1ccccc1`: 10.1%.
The same measure for `Cc1ccc(S(=O)(=O)NCCSc2nnnn2C)cc1`: -2.53%.
Take `C=C(C)C1CC=C(C)/C(=N/NC(=O)COc2cccc(C)c2)C1` (centres unmarked): the “hERG current change (%, negative = inhibition) at 10uM” value is reported as -19.6%.
For the compound `CCn1c(C(C)NC(=O)c2ccc(Cl)cc2)n[nH]c1=S` (centres unmarked), the “hERG current change (%, negative = inhibition) at 10uM” value is recorded as -12.8%.
As for `O=C(NCCSc1ccccc1)c1ccc(CN2CCOCC2)cc1`, the “hERG current change (%, negative = inhibition) at 10uM” value is listed as -10.3%.
Regarding `CCc1cc(C(=O)NNC(=S)NCC2CCCO2)cs1` (centres unmarked), the “hERG current change (%, negative = inhibition) at 10uM” value is on record as -18.8%.
The same measure for `COc1cc([C@@H]2c3cc4c(cc3[C@H](O)[C@H]3COC(=O)[C@H]23)OCO4)cc(OC)c1OC`: -44.8%; for `COc1cc2c(cc1NC(=S)Nc1ccccc1C)oc1ccccc12`: 4.75%.
With `CC(C)NC(=O)c1ccccc1NC(=O)Cc1ccc(Cl)cc1`, the “hERG current change (%, negative = inhibition) at 10uM” value is listed as -11.3%.
On to `CSc1sc(C(=O)OC(C)C)c2c1C(=O)CC(C)(C)C2`, for which the “hERG current change (%, negative = inhibition) at 10uM” value came to 8.83%.
With `Cn1c(CN2CCOCC2)nnc1SCc1cccc(F)c1`, the “hERG current change (%, negative = inhibition) at 10uM” value was determined as 4.72%.
The same measure for `COc1ccc(NC(=O)C/C(C)=N/NC(=O)c2cnccn2)cc1Cl`: 12.5%.
As to `O=C(NCC1CCCO1)C(c1cccs1)N(Cc1cccs1)C(=O)Cn1nnc(-c2cccs2)n1` (centres unmarked), the “hERG current change (%, negative = inhibition) at 10uM” value is listed as -25.5%.
Take `CC(NC(=O)c1ccc(C23CC4CC(CC(C4)C2)C3)cc1)C(=O)O` (centres unmarked): the “hERG current change (%, negative = inhibition) at 10uM” value turned out to be 19.7%.
Regarding `O=C(CSc1nnc(NCc2ccccc2)s1)NC1CCS(=O)(=O)C1` (centres unmarked), the “hERG current change (%, negative = inhibition) at 10uM” value is 10.1%.
As for `CCOC(=O)C1CCCN(C(=O)c2cc3cc4ccc(OC)cc4nc3o2)C1` (centres unmarked), the figure is -40.1%; as for `Cc1cc(C(=O)NC2CCCc3c2cnn3-c2cccc(C)c2C)c(C)o1` (centres unmarked), -1.08%; as for `Cc1ccc(CN2C(=O)CCC2C(=O)NCc2ccc3c(c2)OCO3)cc1` (centres unmarked), -17.4%.
Consider `CCn1nnnc1NC(=O)c1cc(Cl)c(OC)c(Cl)c1`, for which the “hERG current change (%, negative = inhibition) at 10uM” value is -7.3%.
Regarding `Cc1cc(C(=O)Nc2cccc3cccnc23)ccc1[N+](=O)[O-]`, the “hERG current change (%, negative = inhibition) at 10uM” value is given as 11.6%.
As for `CN(C)S(=O)(=O)c1cccc(NC(=O)CSc2cccc3cccnc23)c1`, the figure is -0.148%; as for `Cc1[nH]n(C)c(=O)c1[N+](=O)[O-]`, -16.4%.
In the case of `COc1ccc(CC(=O)N(C)CC(=O)Nc2ccccc2Cl)cc1S(=O)(=O)N1CCOCC1`, the “hERG current change (%, negative = inhibition) at 10uM” value was determined as 7.82%.
As for `CN(C)c1ccc(S(=O)(=O)NCC(=O)NCCC2=CCCCC2)cc1[N+](=O)[O-]`, the “hERG current change (%, negative = inhibition) at 10uM” value was -6.88%.
For the compound `Cc1ccc(C)c(OC(=O)c2cccc(S(=O)(=O)N3CCN(C)CC3)c2)c1`, the “hERG current change (%, negative = inhibition) at 10uM” value was 2.1%.
Regarding `CC1CC(C)CN(S(=O)(=O)c2ccc3c(c2)NC(=O)C(C)C(=O)N3)C1` (centres unmarked), the “hERG current change (%, negative = inhibition) at 10uM” value is reported as 2.63%.
The same measure for `CCOc1ccc(-c2nnc(-c3cccs3)o2)cc1OCC`: 1.32%; for `Fc1cccc(Cl)c1Cn1nnc2c(NCc3ccccn3)ncnc21`: -15.7%.
As for `O=C(CSCc1cnn(-c2ccccc2)c1-n1cccc1)NCc1ccccn1`, the “hERG current change (%, negative = inhibition) at 10uM” value was -21.4%.
Consider `CCN(CC)CCNC(=O)C1c2cc(OC)c(OC)cc2C(=O)N(C)C1c1cccs1` (centres unmarked), for which the “hERG current change (%, negative = inhibition) at 10uM” value is recorded as -1.87%.
Regarding `O=C(COC(=O)c1ccc(S(=O)(=O)N2CCCC2)cc1)NCc1ccccc1`, the “hERG current change (%, negative = inhibition) at 10uM” value is listed as 8.07%.
Take `O=C(O)c1cccnc1SCc1cn2cc(Cl)ccc2n1`: the “hERG current change (%, negative = inhibition) at 10uM” value was found to be 10.7%.
The same measure for `COc1ccc(OCc2cc(C(=O)N3CCCC(CO)C3)no2)c2ccccc12` (centres unmarked): -13.8%.
For `Cc1cc(C)c(N2C(=NC(=O)CCCC(=O)O)SC3CS(=O)(=O)CC32)c(C)c1` (centres unmarked), the “hERG current change (%, negative = inhibition) at 10uM” value came out at 16.4%.
